Out of some 73,000 compounds screened, about 1,800 (2.5%) were called active. Inconclusive results, whose numbers are uncertain, are shown with a selection of clear calls. Calls follow the shape of the dose curve; as a rule, active = well fitted activation curve with a large enough effect; inconclusive = small, poorly fitted or top-dose-only effect; inactive = no such curve, though single readings can be large or run the other way. No potency is given beside an inconclusive call; the fits are too rough.
Test: qHTS Assay for Agonists of the Thyroid Stimulating Hormone Receptor: Activators of Intracellular cAMP Concentrations in Parental HEK 293; also: nearly all actives have a fitted effect of over 55% in size; as to activation: % of control where 0% means no effect
Conditions: parental HEK293 CNG cAMP sensor, membrane potential fluorescence; activation: at 57.1 µM (top of the series) unless noted
Procedure, shortened: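 Parental HEK 293 cells stably expressing a cAMP-gated CNG channel were loaded with membrane potential dye containing 100 uM RO 20-1724 for 60 min. Compound added for 30 min; depolarization read as fluorescence intensity at 590 nm.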
Potency is read from the fitted curve at half-maximal effect; tags tell the direction and shape of the fitted curve.

SMILES	Potency	activation
Cc1ccc(-c2noc(CCC(=O)NC3CCCc4ccccc43)n2)cc1 (configuration not stated)	active: 31.6 µM	–
CC1CCN(Cc2c(C#N)c3ccccc3n2C)CC1	inactive	–
COc1ccccc1CC(=O)N1CCN(c2cccc(C(F)(F)F)c2)CC1	inconclusive [activator, partial curve]	–
CCNc1ncc2nc(-c3cc(F)cc(F)c3)c(=O)n(CCc3ccccc3)c2n1	inactive	–
Cc1ccc(OCc2nnc(SCC(=O)NCc3ccccc3)n2C)cc1	inconclusive [activator, single point]	–
Cn1c(=O)c2[nH]c(CS(=O)(=O)Cc3nc4c([nH]3)c(=O)n(C)c(=O)n4C)nc2n(C)c1=O	–	inactive: -8.86% [at 11.4 µM]
Cc1cc(C)n(CCc2nc(-c3cc4ccccc4o3)cs2)n1	active: 15.8 µM	–
COc1ccccc1CNc1cc(-c2cccnc2)ncn1	inconclusive [activator, single point]	–
CCOC(=O)Cn1c(=O)oc2cc(S(=O)(=O)Nc3ccc(N(CC)CC)cc3C)ccc21	inactive	–
CCc1ccc(C(=O)N2CCN(c3ccc(F)cc3)CC2)s1	inconclusive [activator, single point]	–
Cc1cc(C(=O)OCC(=O)N2CCN(c3ccccc3)CC2)c2ccccc2n1	inactive	–
CCOC(=O)C1=C(C)NC(=O)NC1c1ccc(OC(C)C(=O)O)c(OC)c1 (configuration not stated)	inconclusive [activator, single point]	–
Cc1ccc(N2C(=O)c3ccc(N)cc3C2=O)cc1C	inconclusive [activator, single point]	–
O=C1C(Cl)=C(N2CCCCC2)C(=O)N1c1ccccc1Cl	inactive	–
Cc1cc(C)c2cc(CN(Cc3ccco3)C(=O)NCc3ccccc3)c(=O)[nH]c2c1	inconclusive [activator, full curve]	–
Cc1ccc(-c2[nH]nc3c2C(c2ccoc2)C(C#N)=C(N)O3)cc1C (configuration not stated)	inconclusive [activator, single point]	–
Oc1ccccc1Nc1ncnc2c1oc1ccccc12	inactive	–
CSc1ccc(C2Nc3ccccc3-c3cc(C)nn32)cc1 (configuration not stated)	inactive	–
O=C(NCc1ccco1)Nc1ccccc1Cl	inconclusive [activator, single point]	–
CN1CCN(c2ncnc3ccc(-c4ccccc4Cl)cc23)CC1	inconclusive [activator, partial curve]	–
O=C(O)C1CCCN(S(=O)(=O)c2ccc(Cl)s2)C1 (configuration not stated)	inconclusive [activator, single point]	–
COC(=O)[C@@]1(Cc2ccccc2)[C@H]2c3cc(C(=O)N(C)C)n(Cc4cc(C)n(C)n4)c3C[C@H]2CN1C(=O)c1ccccc1	inconclusive [activator, partial curve]	–
Nc1nc2c(C(=O)NCc3cccs3)nnn2c2cccc(Cl)c12	–	inactive: -11% [at 11.4 µM]
CCn1c(SCC(=O)NCCOc2ccccc2)nc2ccccc2c1=O	inconclusive [activator, partial curve]	–

SMILES	Potency	activation
NC1(C(=O)O)C[C@H](C(=O)O)[C@H](C(=O)O)C1 (some centres not stated)	inactive	–
N#Cc1c(NC(=O)CSc2nnc(-c3ccccc3O)n2-c2ccccc2)sc2c1CCCC2	inactive	–
CCOc1ccc(-c2nnc(NC(=O)c3ccc(OCC(C)C)c(OC)c3)o2)cc1	active: 25.1 µM	–
Fc1ccccc1COc1cccc(/C=N/n2cnnc2)c1	active: 31.6 µM	–
Cc1ccc(-c2csc(NC(=O)c3cccc(N4C(=O)CCC4=O)c3)n2)o1	inconclusive [activator, partial curve]	–
Cn1c(SCc2ccc(Br)cc2)nnc1-c1cccs1	inconclusive [activator, partial curve]	–
O=C(Cc1cccs1)Nc1nc2c(s1)CCCC2	inactive	–
CC(C)C(=O)Nc1ccc(N2CCN(S(C)(=O)=O)CC2)cc1	inactive	–
Cc1csc(NC(=O)CSc2nnc(-c3ccoc3C)n2Cc2ccco2)n1	inconclusive [activator, partial curve]	–
CCOC(=O)CCS(=O)(=O)c1nc(-c2ccccc2)cc(C(F)(F)F)n1	inactive	–
CN(C)c1ccc(C(c2nnnn2C(C)(C)C)N2CCc3ccccc3C2)cc1 (configuration not stated)	active: 15.8 µM	–
COc1ccc(C2CC(=O)c3cnc(NC(=O)c4ccccc4)nc3C2)cc1OC (configuration not stated)	inconclusive [activator, single point]	–
Cc1ccc(NC(=O)CN(c2cc(C)cc(C)c2)S(=O)(=O)c2c(C)noc2C)nc1	active: 20 µM	–
Cc1ccc2c(c1)NC(=O)C(CC(=O)NC1CCCCC1C)O2 (configuration not stated)	inconclusive [activator, single point]	–
O=C(O)c1cc(Cl)c(Cl)cc1C(=O)N1CCCC1	inconclusive [activator, single point]	–
O=C(c1cc(C(F)(F)F)cc(C(F)(F)F)c1)N1CCC[C@@]2(CCN(Cc3nccs3)C2)C1	inconclusive [activator, single point]	–
CC1CCCCC1NC(=O)Cn1nnc(-c2ccc(Cl)cc2)n1 (configuration not stated)	inconclusive [activator, single point]	–
Cc1ccc(S(=O)(=O)N2CCN(C(=O)CSC3CCCC3)CC2)c(C)c1	inconclusive [activator, single point]	–
O=C1c2ccccc2C(=O)N1CCCCn1c(=O)oc2ccccc21	inconclusive [activator, single point]	–
CC(C)Oc1ccc(CSc2nnc3n(C)c(=O)c4c5c(sc4n23)CCCC5)cc1	active: 15.8 µM	–
COc1cc(C2=NOC(C(=O)N3CCCc4ccccc43)C2)cc(OC)c1OC (configuration not stated)	inconclusive [activator, single point]	–
CC1=C(C(=O)OCc2ccccc2)C(c2ccc(C(F)(F)F)cc2)NC(=O)N1CCCCCC(=O)O (configuration not stated)	inconclusive [activator, single point]	–
Cn1c(=O)c2c(nc(N3CCNCC3)n2Cc2cccc3ccccc23)n(C)c1=O	inactive	–

Reference: PubChem BioAssay AID938 (National Center for Advancing Translational Sciences (NCATS), 2007)
